Measurements from the supplement of paper PMC12217912.
Some of the results follow. Sequences were assembled here from the parent chain. Values near 0.05 are background.

B1: TEV protease; numbered along this chain (parent)
chain: MGESLFKGPRDYNPISSSICHLTNESDGHTTSLYGIGFGPFIITNKHLFRRNNGTLVVQSLHGVFKVKDTTTLQQHLVDGRDMIIIRMPKDFPPFPQKLKFREPQREERICLVTTNFQTKSMSSMVSDTSCTFPSGDGIFWKHWIQTKDGQCGSPLVSTRDGFIVGIHSASNFTNTNNYFTSVPKNFMELLTNQEAQQWVSGWRLNADSVLWGGHKVFMVKPEEPFQPVKEATQL

Variants of: B1
Assay: raw area under fraction-flipped curve 0-4 h after induction (AUC4h, not background-subtracted), DNA-recorder readout of cleavage of the substrate (dimensionless); higher = more cleavage of the substrate by the protease variant
Details: temperature: 34 °C; time window: 0-4 h after rhamnose induction
Protocol: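 In vivo DNA recorder in E. coli TOP10(DE3) ΔrhaA at 34 °C. Each TEVp single-site mutant (parent TEVp 0) is paired with a single-site variant of the 7-mer TEVs (canonical ENLYFQ|S). The substrate sits between flexible linkers in a Bxb1-sfGFP-TEVs-SsrA fusion, so cleavage stabilises Bxb1 and speeds flipping of a recombination array, read by NGS. The value is the raw area under the fraction-flipped curve over 0-4 h after rhamnose induction (AUC4h), with ≥20 reads per time point. It is not background-subtracted; inactive controls average about 0.047.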
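Also: Bxb1 expression induced with 0.2% (w/v) L-rhamnose at OD600 near 0.5, cultures sampled hourly, flipped fraction per protease–substrate barcode pair counted by paired-end Illumina sequencing.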

Variant | area with substrate EALYFQS | area with substrate ECLYFQS | area with substrate EDLYFQS | area with substrate EELYFQS | area with substrate EFLYFQS | area with substrate EGLYFQS | area with substrate EHLYFQS | area with substrate EILYFQS | area with substrate EKLYFQS | area with substrate ELLYFQS | area with substrate EMLYFQS | area with substrate EPLYFQS | area with substrate EQLYFQS | area with substrate ERLYFQS | area with substrate ESLYFQS | area with substrate ETLYFQS | area with substrate EVLYFQS | area with substrate EWLYFQS | area with substrate EYLYFQS
G150T | 0.0566 | 0.0515 | 0.0589 | 0.053 | 0.0555 | 0.0569 | 0.0585 | 0.0525 | 0.0576 | 0.0676 | 0.0495 | 0.0596 | 0.0546 | 0.0475 | 0.0572 | 0.0405 | 0.055 | 0.065 | 
T192S | 0.0848 | 0.118 | 0.0882 | 0.102 |  |  |  | 0.0948 |  | 0.0999 | 0.088 | 0.13 |  | 0.138 | 0.086 | 0.0938 | 0.0925 |  | 
L56A | 0.165 | 0.088 |  |  |  |  | 0.0861 |  | 0.076 |  | 0.081 |  | 0.114 |  | 0.0762 | 0.0916 | 0.0815 |  | 
W144A | 0.112 | 0.0736 | 0.162 | 0.143 | 0.106 | 0.095 |  | 0.0891 |  | 0.099 |  |  | 0.0944 | 0.0802 | 0.101 |  | 0.0878 | 0.0958 | 
P96W | 0.111 | 0.0914 |  | 0.0957 | 0.0902 | 0.0733 | 0.088 | 0.11 | 0.0986 |  |  | 0.0995 |  | 0.0685 | 0.0913 |  | 0.0737 |  | 
P134C | 0.0968 | 0.0781 | 0.106 | 0.0998 | 0.0895 | 0.0735 | 0.0955 | 0.0264 | 0.075 | 0.0648 | 0.088 |  | 0.0945 | 0.0783 | 0.084 |  | 0.086 | 0.0744 | 0.0851
L191C | 0.107 | 0.0829 | 0.0806 | 0.0938 | 0.0789 | 0.0841 | 0.0677 | 0.0707 | 0.0788 | 0.093 |  | 0.106 | 0.101 | 0.0822 | 0.0867 |  | 0.0845 | 0.0743 | 0.0791
E25C | 0.133 | 0.112 | 0.104 | 0.141 | 0.0861 | 0.123 | 0.0994 | 0.0797 | 0.0717 |  | 0.126 | 0.106 | 0.125 |  | 0.106 | 0.0608 | 0.0883 | 0.11 | 0.115
P134Y | 0.0894 | 0.0737 | 0.0974 | 0.0383 | 0.0753 | 0.068 | 0.0749 | 0.0819 | 0.0592 | 0.0644 |  | 0.0808 | 0.0884 | 0.0643 | 0.0811 | 0.0646 | 0.12 | 0.0339 | 0.0738
Q197Y | 0.101 |  | 0.0972 |  |  |  |  | 0.0804 |  |  |  |  |  |  | 0.0748 |  |  | 0.0886 | 
C152R | 0.0664 |  | 0.07 | 0.0577 |  | 0.0448 |  | 0.0664 |  |  | 0.0606 |  | 0.053 | 0.0632 | 0.0645 |  | 0.0413 | 0.0471 | 0.0538
D11E | 0.11 | 0.0952 | 0.121 | 0.121 | 0.084 | 0.087 | 0.099 | 0.135 | 0.105 | 0.0876 | 0.0847 | 0.117 | 0.125 |  | 0.1 | 0.111 | 0.0873 | 0.0926 | 0.126
E223L | 0.0965 | 0.0856 | 0.122 | 0.099 | 0.104 | 0.0844 | 0.0756 | 0.103 | 0.0854 | 0.0801 | 0.0809 | 0.094 | 0.107 | 0.0818 | 0.083 | 0.0883 | 0.0856 |  | 
V126T | 0.113 | 0.104 | 0.0857 | 0.109 |  | 0.0764 | 0.112 | 0.0958 | 0.123 |  |  |  | 0.145 | 0.101 | 0.0981 |  |  | 0.139 | 0.111
I15N | 0.0817 | 0.0708 | 0.089 | 0.0678 | 0.0804 | 0.0694 | 0.0912 | 0.0831 | 0.0578 | 0.0809 | 0.0839 | 0.1 | 0.0777 | 0.0757 | 0.0683 |  | 0.1 | 0.0677 | 0.0772
P96C | 0.122 | 0.112 |  |  |  |  |  | 0.0858 | 0.136 | 0.11 |  | 0.136 | 0.123 | 0.154 | 0.126 |  |  | 0.117 | 0.114
L33S | 0.108 | 0.08 | 0.111 | 0.0972 | 0.0922 | 0.0741 | 0.0977 | 0.0871 | 0.12 | 0.079 |  | 0.088 | 0.101 | 0.0948 | 0.101 | 0.137 | 0.0735 | 0.0775 | 0.12
E108Q | 0.0545 |  | 0.0965 | 0.087 |  | 0.0714 |  | 0.0668 | 0.0903 |  | 0.07 |  |  | 0.0357 | 0.0686 | 0.0588 | 0.0914 | 0.0709 | 
P9Q | 0.14 | 0.109 |  | 0.125 | 0.0857 | 0.0935 | 0.129 | 0.107 | 0.119 | 0.0931 |  | 0.147 | 0.0048 | 0.112 | 0.1 | 0.127 |  |  | 0.135
T132M | 0.107 | 0.098 | 0.117 | 0.104 | 0.12 | 0.104 | 0.0978 | 0.0987 | 0.117 | 0.0917 | 0.116 | 0.0999 | 0.106 | 0.0971 | 0.112 | 0.106 | 0.0878 | 0.0486 | 0.121
R106G | 0.0977 |  | 0.148 |  |  |  |  |  | 0.0849 |  |  |  | 0.136 |  | 0.0929 |  |  |  | 
N24A | 0.108 | 0.0746 | 0.0839 |  |  | 0.0759 |  | 0.0843 | 0.0993 | 0.116 | 0.0774 | 0.153 | 0.0862 | 0.0724 | 0.0856 | 0.0822 | 0.0793 | 0.078 | 0.0839
S17C | 0.106 | 0.0987 | 0.138 | 0.12 | 0.1 | 0.106 | 0.101 | 0.0921 | 0.107 | 0.13 | 0.0965 | 0.123 | 0.105 |  | 0.106 | 0.118 | 0.0826 | 0.087 | 0.103
H21T | 0.0997 | 0.0868 | 0.098 | 0.113 | 0.0871 | 0.0767 | 0.12 | 0.0945 | 0.0903 | 0.101 | 0.0909 | 0.101 | 0.113 | 0.104 | 0.0885 |  | 0.097 | 0.0935 | 0.0727
